We go through three molecules from patent US20260097111A1, “ETHER LIPIDS FOR HYPERACTIVATION OF MAMMALIAN DENDRITIC CELLS” (priority 2022, published 2026).

The assay concerns murine Flt3L-DCs and CD8+ T-cells from OVA-immunized mice. Nature of the assay: Flt3L-DC and OVA-specific CD8+ T-cell co-culture, IFNγ. As to conditions: FIG. 40; for IFNγ secretion by CD8+ T cells with inhibitor: inhibitor (IL-1RA 500 ng/ml or MCC950 50 μM) added to R848+DGP+OVA. As for the experimental part: Murine Bone Marrow-Derived FLT3L-DC Generation. The femur and tibia were removed from 15 mice for each batch of Flt3L-DC generation. The bone marrow was flushed from the bones into sterile tubes by cutting the ends of the bones and centrifuging the bones for 30 s at 10,000×g. Bone marrow cells from 5 mice were pooled into a 50 ml conical tube and pelleted. The volume of reagents reported in this section is adjusted for processing of bone marrow cells from 5 mice. The cells were resuspended in 2 ml of cold ACK solution for 1 minute. The ACK solution was quenched by adding 10 ml of complete I10 media. The cell suspension was centrifuged at 400×g for 5 min to pellet the cells. The cell pellet was resuspended in 15 ml I10 media and passed through a 40 mm cell strainer. Cells were counted using Moxi V cell counter and resuspended in I10 media at a density of 8×10^6 cells/ml. Cells were then plated at 8×10^6 bone marrow cells/well in a 12-well tissue culture plate. Recombinant mouse Flt3L (Miltenyi) was added to cultures at a final concentration of 200 ng/ml. Differentiated cells were used for subsequent assays on day 9. The efficiency of differentiation was monitored by flow cytometry using BD Symphony A3, and CD11c+MHC-II+ cells were routinely above 80% of living cells.
Hyperactivation of Murine FLT3L-DCs. For T-cell co-culture, 9 day differentiated Flt3L-DC were resuspended at a density of 5×10^6 cells/mi, without Flt3L, and 1 ml of the cell suspension was added to 5 ml MacroTubes. The Flt3L-DC were treated under different conditions as listed in Table 9-1, in a final volume of 2 ml. The tubes were incubated at 37° C., 5% CO2 for 16 hours under static conditions.
Lipid Preparation. Lipid stocks were formulated at 650 μg/mL lipid in 4% Kolliphor P407 (KP407). Lipids were prepared from lyophilized stocks by mixing with a cold solution of KP407 at 1000 rpm for 1 hour at RT. […]
Generation of CD8+ T-cells for Co-Culture Assay. […] The cells were pooled from different mice and the cell density was determined using a Moxi V cell counter. […]

Take `CCCCCCCCCCCCCCCCCCCCCCOC[C@@H](O)COP(=O)(O)O` [Compound 2, 1-docosyl-sn-glycerol-3-phosphate]: the “IFNγ secretion by CD8+ T cells (reactivation)” value (Flt3L-DCs pre-treated with 2.85 μM R848 and/or 41 μM DGP, OVA 100 μg/ml, co-culture 96 hours) is on record as “did not induce IFNγ secretion in the supernatant”.
As for “IL-1RA: interleukin-1 receptor antagonist”, the “IFNγ secretion by CD8+ T cells with inhibitor” value is on record as “partially inhibited”.
Same read-out and setting: as for `CC(C)(O)c1coc(S(=O)(=O)NC(=O)Nc2c3c(cc4c2CCC4)CCC3)c1` [MCC950, reference compound], the entry is “partially reduced level of reactivation”.
